# In PubChem BioAssay AID686978 (National Center for Advancing Translational Sciences (NCATS), 2013):
# Hit rate of the full screen: of about 420,000 compounds, about 64,000 (15%) were called active. This list was built around the results that the source calls inconclusive (neither active nor inactive); the mix of calls is not that of the screen. Calls come from the whole dose curve; as a rule, active = well fitted inhibition curve with a large enough effect; inconclusive = small, poorly fitted or top-dose-only effect; inactive = flat fitted curve, though single readings scatter. Potencies of inconclusive entries are left out as doubtful fits.
# Assay: qHTS for Inhibitors of human tyrosyl-DNA phosphodiesterase 1 (TDP1): qHTS in cells in absence of CPT; note: nearly all actives have a fitted effect of over 55% in size
# Settings: DT40 Tdp1-/- hTDP1 cells, no CPT, ATP luminescence, 48 h; activity change, negative = growth inhibition: at 46.2 µM (top of the series)
# Outline: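 A cellular qHTS used chicken DT40 cells lacking endogenous Tdp1 but carrying stably transfected human TDP1. Compounds were applied without camptothecin, and cell growth kinetics were judged by ATP-dependent luminescence after ≥48 hr.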
# % is set by controls: 0 for no effect and ±100 for the full control effect; potency is the fitted concentration of half-maximal effect; tags give direction and shape of the fitted curve.
SMILES,Potency,"activity change, negative = growth inhibition"
CN(C)S(=O)(=O)N1CCC(Oc2cccc(C(=O)N3CCCCCC3)c2)CC1,"inconclusive [inhibitor, single point]",
Cc1ccc(Nc2ncc(C(=O)N3CCN(c4ccc(F)cc4)CC3)c3ccccc23)cc1Cl,"inconclusive [inhibitor, single point]",
CCC(=O)N1CCc2cc(S(=O)(=O)NC(Cc3ccccc3)C(=O)Nc3nccs3)ccc21 (stereo not given),"inconclusive [inhibitor, partial curve]",
Cc1cc(C)c2nc(N3CCN(C(=O)c4cccs4)CC3)sc2c1,"inconclusive [inhibitor, single point]",
O=C(C1=C[C@H](C2CCCCC2)C[C@H](OCc2ccc(CO)cc2)O1)N1CCOCC1,"inconclusive [inhibitor, single point]",
Cc1nc2ccccc2c(=O)n1NC(=O)c1cccc(Cl)c1,,inconclusive: -33.2% [inhibitor]
Fc1ccc2c(c1)C(c1ccc(N3CCOCC3)cc1)=NNC(c1cccs1)=N2,active: 23.1 µM,
COC(=O)[C@]12CCCCC=C1N(CCC1=CCCCC1)C(=O)[C@H](CC(=O)NCc1ccc(OC)c(OC)c1)C2,"inconclusive [inhibitor, single point]",
Cc1cccc(Nc2ncnc(N)c2[N+](=O)[O-])n1,active: 16.4 µM,
Cc1ccc(NC(=S)NC(=O)C2CCCC2)cc1C,"inconclusive [inhibitor, single point]",
CCOc1cc(/C=C2\N=C(C)OC2=O)cc(Cl)c1OCC(=O)OC,"inconclusive [inhibitor, partial curve, poor fit]",
COc1ccc(S(=O)(=O)NC2CCCC2)cc1Cl,inactive,
Cc1ccc(C)c(-n2c3nc(=O)[nH]c(=O)c-3cc3c(C)nn(-c4ccccc4)c32)c1,inactive,
O=C(NC12CC3CC(CC(C3)C1)C2)N1CCN(S(=O)(=O)c2ccc(Cl)cc2)CC1,active: 23.1 µM,
CN1CCN(C(=O)c2ccc(CSc3nc4ccncc4n3Cc3ccc(F)cc3)cc2)CC1,inactive,
Cc1cccc(CN2CCC(Oc3ccc(C(=O)N4CCCCC4)cc3)CC2)c1,,inconclusive: -30.6% [inhibitor]
CC(C(=O)O)n1c2ccccc2c2cn[nH]c(=O)c21 (stereo not given),"inconclusive [inhibitor, single point]",
Cc1c(Cl)cccc1NC(=O)CC1Sc2ccccc2NC1=O (stereo not given),"inconclusive [inhibitor, single point]",
O=C(Cn1ccccc1=O)c1ccc(Cl)cc1,inactive,
COc1ccc(N/C=C/C(=O)c2ccc(C)cc2)c([N+](=O)[O-])c1,"inconclusive [inhibitor, single point]",
N#Cc1ccc(C(=O)NCc2ccc3c(c2)CCN3C(=O)c2ccc(F)cc2)cc1,active: 23.1 µM,
COc1ccc(-n2ncc(C(=O)N3CCN(c4ccc(F)cc4)CC3)c2C)cc1,,inconclusive: -33.6% [inhibitor]
CC(=O)c1cccc(S(=O)(=O)Nc2cccnc2)c1,inactive,

SMILES,Potency,"activity change, negative = growth inhibition"
CCOC(=O)c1ccc(N2C(=O)c3n[nH]c(C)c3C2c2ccccc2OC)cc1 (stereo not given),active: 18.4 µM,
O=c1c2ccccc2nc(/C=C/c2ccccc2)n1CCCO,"inconclusive [inhibitor, single point]",
Cc1nc(NCc2ccco2)c2oc3ccccc3c2n1,active: 10.3 µM,
CCOC(=O)N1CCN(C(=O)C[C@@H]2C[C@@]3(C(=O)OCC)CCCC=C3N(Cc3ccc(Cl)cc3Cl)C2=O)CC1,active: 23.1 µM,
CCCNC(=O)C1CN(S(=O)(=O)c2ccc(Cl)s2)c2ccccc2O1 (stereo not given),"inconclusive [inhibitor, single point]",
CCOc1ccc(N(C(=O)c2snc(C(N)=O)c2N)C(C(=O)NCC2CCCO2)c2ccc(C)o2)cc1 (stereo not given),"inconclusive [inhibitor, single point]",
COc1cc(/C=C2\SC(=Nc3ccccc3)NC2=O)cc(Cl)c1O,"inconclusive [inhibitor, partial curve, poor fit]",
CCc1ccc(OCC(=O)NC(NC(=S)Nc2ccccc2)C(Cl)(Cl)Cl)cc1 (stereo not given),"inconclusive [inhibitor, single point]",
C[C@]1(CO)CCC[C@@]2(C)C1CC[C@@H](CO)[C@@H]2CCc1ccoc1 (stereo not given in full),"inconclusive [inhibitor, partial curve, poor fit]",
CC(C)c1ccc(NC(=O)c2ccc3c(c2)CCN3S(C)(=O)=O)cc1,active: 8.2 µM,
O=C(CN1CCN(c2nc(-c3ccccc3)cs2)CC1)NCc1ccc2c(c1)OCO2,inactive,
CCCC(=O)n1nc(NCc2ccc(OC)cc2)nc1NCc1ccc(OC)cc1,inactive,
O=C(c1ccc(N2CCCS2(=O)=O)cc1)N1CCN(c2ccc(F)cc2)CC1,"inconclusive [inhibitor, single point]",
O=C(c1ccccc1Cl)N(Cc1ccc(Br)cc1)N1C(=O)CCCC1=O,"inconclusive [inhibitor, single point]",
Cc1nn(CC#N)c(=O)n1N(C)c1ncc(C(F)(F)F)cc1Cl,"inconclusive [inhibitor, single point]",
CCc1ccc2oc(C(=O)Nc3c(C)n(C)n(-c4ccccc4)c3=O)cc(=O)c2c1,inactive,
Cc1ccccc1Cn1c2ccccc2c2cnn(CC(=O)NC(C)CCc3ccccc3)c(=O)c21 (stereo not given),active: 9.2 µM,
S=C(NCCc1ccccc1)N1CCn2cccc2C1c1cccnc1 (stereo not given),"inconclusive [inhibitor, single point]",
COC(=O)N1CCC[C@@]2(CCN(C(=O)Nc3cccc(C#N)c3)C2)C1,active: 0.0461 µM,
COC(=O)CCn1nc(-c2ccc(Cl)cc2)c2ccccc2c1=O,"inconclusive [inhibitor, single point]",
O=C(Cn1[nH]c(=O)c2ccccc2c1=O)NC1CCN(Cc2ccccc2)CC1,inactive,
CC(NCC(O)COc1ccc2ccccc2c1)c1ccccc1 (stereo not given),active: 16.4 µM,
